# The list shows a part of the results. Values come from read counts of a selection and are noisy.
# T1: RDX_FERM_1_P35241_5_295
# T1 chain: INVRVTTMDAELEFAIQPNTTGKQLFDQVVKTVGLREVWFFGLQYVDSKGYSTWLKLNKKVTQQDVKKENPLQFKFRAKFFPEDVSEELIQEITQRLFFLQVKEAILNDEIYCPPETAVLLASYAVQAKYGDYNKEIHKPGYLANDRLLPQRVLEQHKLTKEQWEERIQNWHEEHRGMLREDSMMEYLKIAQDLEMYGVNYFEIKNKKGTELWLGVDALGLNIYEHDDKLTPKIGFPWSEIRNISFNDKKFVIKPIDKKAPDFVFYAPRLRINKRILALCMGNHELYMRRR
# T2: PTK2_Focal-AT__Q05397_891_1050
# T2 chain: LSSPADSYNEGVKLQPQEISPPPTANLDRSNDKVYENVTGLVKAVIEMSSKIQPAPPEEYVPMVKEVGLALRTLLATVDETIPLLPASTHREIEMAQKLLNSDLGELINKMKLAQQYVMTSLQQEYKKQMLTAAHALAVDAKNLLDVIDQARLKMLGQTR
# Biological target: T1, RDX_FERM_1_P35241_5_295
# Assay: mean normalised NGS count of phage-displayed peptide after selection on bait (% of reads); baits are purified protein domains named by gene / domain / UniProt id / residues; peptides come from disordered regions of human proteins; higher = stronger enrichment / binding
# Conditions: replicate selections in which the peptide was seen: 2
row,Binder,mean normalised NGS count
1,TQHSYTYNVSNLDVRQ [KMT2D 4890-4905 wt],0.0183
2,MFDLLKEETEVKDLPE [ABCB6 564-579 mut Q9NP58.G579E],0.14
3,MYDIISSPSKDSTNLT [NIPBL 344-359 mut Q6KC79.K357N],0.00611
4,EKAAMYDIISSPSKDS [NIPBL 340-355 wt],0.121

# Biological target: PTBP1_RRM_2_P26599_157_285
# Assay: as above
# Conditions: replicate selections in which the peptide was seen: 6
row,Binder,mean normalised NGS count
1,HGLLQNPYAIPPLFPI [BRCA1 971-986 mut P38398.R979C],0.456
2,ARLNMGILGSYDPQQI [TRAF7 370-385 wt],0.906
3,QEQLLASGSLLGSPDV [MUTYH 311-326 mut Q9UIF7.S321L],3
4,PLLPSPFGAGGLGLPV [GLIS2 415-430 wt],0.0646
5,AGLNMGILGSYDPQQI [TRAF7 370-385 mut Q6Q0C0.R371G],68.5
6,SHINAGLNMGILGSYD [TRAF7 366-381 mut Q6Q0C0.R371G],1.35

# Biological target: T1, RDX_FERM_1_P35241_5_295
# Assay: as above
# Conditions: replicate selections in which the peptide was seen: 3
row,Binder,mean normalised NGS count
1,EEIFHMTYDLASAVVR [HCN3 282-297 wt],0.0961
2,EEIFHMTYDLASAVVR [HCN4 282-297 wt],0.0961
3,LYLLQEHSDEAIWAAL [ABCC6 1360-1375 mut O95255.D1361Y],0.606
4,EEIFHMTYDLASAVVR [HCN1 282-297 wt],0.0961

# Biological target: RAN2-B_Ran-BP1-PH-domain__P49792_2924_3050
# Assay: as above
# Conditions: replicate selections in which the peptide was seen: 5
row,Binder,mean normalised NGS count
1,QDDLFWLTFEGKPLED [ISG15 118-133 wt],0.437

# Biological target: T2, PTK2_Focal-AT__Q05397_891_1050
# Assay: as above
# Conditions: replicate selections in which the peptide was seen: 2
row,Binder,mean normalised NGS count
1,MAFYSAAWVLSALTWH [CASR 1-16 mut P41180.L11S],0.406
2,EIQASIDQIFSRLEAL [GOSR2 36-51 mut O14653.R50C],6.66
3,PLTLKEMLESIRETAE [BBS1 149-164 wt],0.106
4,VVRLLELRTAEPEVRA [MYO7A 1694-1709 mut Q13402.Q1699E],0.475

# Biological target: RAN2-B_Ran-BP1-PH-domain__P49792_2924_3050
# Assay: as above
# Conditions: replicate selections in which the peptide was seen: 6
row,Binder,mean normalised NGS count
1,KPLYTALPPESAFPPA [ZEB2 892-907 mut O60315.Q901E],61.2
2,GVDPSFLAALPDDIRR [HUWE1 2967-2982 wt],0.24
3,GVDPSFLAALPDDIHR [HUWE1 2967-2982 mut Q7Z6Z7.R2981H],4.53
4,MYQVPLPLDRDGTLVW [PGAP2 1-16 mut Q9UHJ9.R16W],5.63
5,ALTSNQEYLYLSMPLD [FGFR1 759-774 mut P11362.D768Y],24.5

# Biological target: T2, PTK2_Focal-AT__Q05397_891_1050
# Assay: as above
# Conditions: replicate selections in which the peptide was seen: 4
row,Binder,mean normalised NGS count
1,ALITDMLHQLLSMHGG [KCNQ1 607-622 mut P51787.L619M],38.4
2,VLTAILLLLRELDAEG [CFAP410 216-231 wt],8.07

# Same assay, conditions: replicate selections in which the peptide was seen: 5
row,Binder,mean normalised NGS count
1,YSGESLEDLMAKMKNM [UBA5 389-404 mut Q9GZZ9.D389Y],1.59
2,ELNGYMEWISKAEEVI [CACNA1A 388-403 wt],37.6

# Same assay, conditions: replicate selections in which the peptide was seen: 3
row,Binder,mean normalised NGS count
1,NDSLMRQMRELEDLFA [DES 342-357 mut P17661.R355L],0.463
